PubChem BioAssay AID1956 (SRMLSC, 2009)
Where “and” joins values, the source holds several entries; their conditions need not be identical. Equal values may be shown once. The list shows a part of the results. These are further read-outs of the screen, such as a control signal, another cell line or another target. No call is given for them.

Assay: compounds boosting herpes simplex virus growth – fold increase, host cell viability (AID 1956); also: tested in PC3 cells
Conditions: HSV replication augmentation in cells; fold increase: measured here: primary screen fold increase 10 uM, at 10 µM, stronger effect = higher value; viability: measured here: host cell viability series, at 25 µM, stronger effect = lower value

Compound | fold increase | viability
CC(=O)Nc1ccc(OC(=O)c2ccccc2N)cc1 | 1.37 | 96.2%
CN(C)/C=c1\sc2c(C#N)cc(C(=O)c3ccc(Br)cc3)n2c1=O | 1.58 | 98.6%
CC1(C)OC(c2ccccc2)=C/C(=C/C=C2C(=O)NC(=S)NC2=O)O1 | 5.27 | –
O=C1NC(=O)N(CCc2ccc(F)cc2)C(=O)/C1=C/c1ccco1 | 1.6 | 91.2%
Cc1cc(C=C2C(=O)N(C)C(=S)N(C)C2=O)c(C)n1C1CCCCC1 | 2.82 | 97.9%
O=c1[nH]c(=O)n(CCC2=CCCCC2)c(O)c1/C=N/Nc1cccc2ccccc12 | 1.78 | 92.8%
CN1/C(=C\C=C2C(=O)NC(=S)NC2=O)C(C)(C)c2ccccc21 | 8.73 | 92.7%
O=C1NC(=O)N(Cc2ccc(F)cc2)C(=O)/C1=C\c1ccc([N+](=O)[O-])s1 | 1.71 | 90.8%
N=C1c2ccccc2CN1NC(=O)c1ccc(Cl)cc1 | 1.44 | 100%
CCC1(C)OC(c2ccccc2)=C/C(=C/C=C2C(=O)NC(=O)NC2=O)O1 (stereo not given) | 4.22 | 93.2%
COC(=O)C1C=C2c3cccc4[nH]cc(c34)CC2N(C)C1 (stereo not given) | 1.89 | 99.6%
CC(C(=O)c1c[nH]c2ccccc12)N1CCc2ccccc2C1 (stereo not given) | 1.13 | 75.4%
CCOc1ccc(N2C(=O)NC(=O)/C(=C\c3ccc(N4CCCCC4)o3)C2=O)cc1 | 3.09 | 92.6%
O=C1NC(=O)N(c2ccccc2)C(=O)/C1=C/c1ccoc1 | 1.9 | 101%
COCC(C)OC(=O)c1c(N)n(Cc2ccco2)c2nc3ccccc3nc12 (stereo not given) | 1.64 | 97.3%
O=C1NC(=O)N(c2ccccc2F)C(=O)/C1=C/c1ccc(Sc2nc3ccccc3[nH]2)o1 | 2.67 | 97.9%
O=C1NC(=O)N(c2ccc3c(c2)OCO3)C(=O)/C1=C/c1ccc(N2CCCC2)o1 | 2.14 | 100%
N#Cc1c(/N=C/C2C(=O)NC(=S)NC2=O)sc2c1CCCC2 | 1.36 | –
Cc1cc(C=C2C(=O)N(C)C(=S)N(C)C2=O)c(C)n1-c1cccnc1 | 1.32 | –
O=C1OC(c2ccc([N+](=O)[O-])cc2)=N/C1=C/N1CC2CC(C1)c1cccc(=O)n1C2 (stereo not given) | 1.42 | 98.1%

Compound | fold increase | viability
C/C(=N\Nc1cccc2ccccc12)c1c(O)n(Cc2ccccc2)c(=O)[nH]c1=O | 1.45 | 90.8%
Cc1ccc(/C=C2\C(=O)NC(=S)N(c3ccc(F)cc3)C2=O)s1 | 1.38 | –
COc1ccc2c(c1)CC1(CN2C)C(=O)NC(=O)N(c2ccc(F)cc2)C1=O (stereo not given) | 1.49 | 93.2%
CC(=NCCCn1ccnc1)c1c(O)n(Cc2ccccc2)c(=O)[nH]c1=O | 1.37 | 94.9%
O=c1[nH]c(=O)n(C2CCCCC2)c(O)c1/C=C/C=Nc1ccccc1 | 4.29 | 94.5%
COCCCNC(=O)c1c(N)n(Cc2ccco2)c2nc3ccccc3nc12 | 1.5 | 80.2%
COCCNC(=O)c1c(N)n(Cc2ccco2)c2nc3ccccc3nc12 | 1.36 | 93.6%
O=c1[nH]c(=S)n(C2CC2)c(O)c1/C=N/Nc1cccc2ccccc12 | 1.4 | 95.6%
COc1ccccc1N1C(=O)NC(=O)/C(=C/c2ccc3c4c(cccc24)CC3)C1=O | 1.37 | 104%
O=C1NC(=O)N(Cc2ccccc2)C(=O)/C1=C/C=C/c1ccco1 | 1.74 | 61.2%
CCN(CC)c1ccc(N=Cc2c(O)n(-c3ccc(Cl)cc3)c(=O)[nH]c2=O)cc1 | 1.38 | 104%
Cc1cc(C)cc(N2C(=O)NC(=O)/C(=C\C=C\c3ccco3)C2=O)c1 | 1.78 | 76.6%
CCOC(=O)c1c(/N=C/C2C(=O)NC(=S)NC2=O)sc2c1CCC2 | 1.34 | –
COc1ccc(/C=C2/C(=O)N(Cc3ccco3)C(=O)N(C(C)C)C2=O)cc1 | 1.39 | 99.6%
O=C1NC(=O)N(Cc2ccccc2)C(=O)/C1=C\N1CCCc2ccccc21 | 1.4 | 93.5%
OC(c1ccc(F)cc1)C(c1ccccc1)N1CCOCC1 (stereo not given) | 1.13 | 103%
CCN(CC)c1ccc(N=Cc2c(O)n(Cc3ccccc3)c(=O)[nH]c2=O)cc1 | 1.54 and 1.6 | 99.6% and 75.1%
CC(C)n1c(=O)c(C=Nc2ccc(S(N)(=O)=O)cc2)c(O)n(Cc2ccco2)c1=O | 1.45 | 98.6%
Cc1ccc(N2C(=O)NC(=O)/C(=C\c3ccoc3)C2=O)cc1 | 2.71 | 95.1%
C=CCN1C(=O)/C(=C/c2ccc(N3CCOCC3)o2)C(=O)NC1=S | 1.56 | –

Compound | fold increase | viability
CCN1C(=O)C(=Cc2ccc(N3CCOCC3)o2)C(=O)N(CC)C1=S | 2.68 | 96.2%
CCOC(=O)c1c(N)n(CCN2CCOCC2)c2nc3ccccc3nc12 | 1.41 | 103%
CN1C(=O)/C(=C/c2ccc(N3CCCCCC3)o2)C(=O)NC1=S | 2.48 | 91%
COC(=O)CC(=O)c1ccc2c(c1)OCO2 | 1.34 | 103%
Cc1ccc(N2C(=O)NC(=O)/C(=C/C=C/c3ccco3)C2=O)cc1 | 1.85 | –
CCCC(=O)NC(Oc1ccc(OC)cc1)C(Cl)(Cl)Cl (stereo not given) | 1.33 | 93.5%
CCc1ccc(N2C(=O)NC(=O)/C(=C\C=C\c3ccco3)C2=O)cc1 | 2.36 | –
Nc1ccc2nonc2c1[N+](=O)[O-] | 3.22 | 103%
C=CCN1C(=O)NC(=O)/C(=C/c2ccoc2)C1=O | 1.37 | 94.1%
C=CCn1c(=O)c(C=Nc2cccnc2Cl)c(O)n(CCCC)c1=O | 1.43 | 106%
CC(C)c1ccc(N2C(=O)NC(=O)/C(=C/c3cnc(-c4ccccc4)nc3)C2=O)cc1 | 3.53 | –
COc1ccc(CN2C(=O)CC(=O)NC2=S)cc1 | 1.45 | 102%
Cn1c(=O)oc2cc(S(=O)(=O)N3CCC(C(=O)Nc4ccc(OC(F)(F)F)cc4)CC3)ccc21 | 1.53 | 96.6%
CN1C(=O)C(=Cc2sc(=O)n(-c3ccccc3)c2N(C)C)C(=O)N(C)C1=O | 1.38 | 82.2%
CN1C(=O)C(=Cc2ccc(N3CCCCCC3)o2)C(=O)N(C)C1=S | 9.8 | 84.5%
Cc1ccc(-n2c(O)c(/C=C/C=Nc3ccccc3)c(=O)[nH]c2=O)cc1 | 2.75 | –
O=C1CC(N2CC=C(c3ccccc3)CC2)C(=O)N1c1ccc(F)cc1 (stereo not given) | 1.38 | 93.8%
CC(C)c1ccc(N2C(=O)NC(=O)/C(=C\C=C\c3ccco3)C2=O)cc1 | 1.5 | –
